Changes are numbered by the printed parent chain; changes in the protein carry UniProt numbers. The list shows a part of the results.
B1: GUUUGAG (DNA:RNA)
RNA: GGGAGACCGGAAUUCAGAUUGUCCGUUUGAGUUAAAUCCCGUCGUAGCCACCA
DNA 1: CAATCTGAATTCCGGTCTCCC
DNA 2: TGGTGGCTACGACGGGATT
B2: UUUCUUA (DNA:RNA)
RNA: B1 RNA with G25U, U28C, G29U, A30U, G31A
DNA 1: CAATCTGAATTCCGGTCTCCC
DNA 2: TGGTGGCTACGACGGGATT
B3: UAUUAUG (DNA:RNA)
RNA: B1 RNA with G25U, U26A, G29A, A30U
DNA 1: CAATCTGAATTCCGGTCTCCC
DNA 2: TGGTGGCTACGACGGGATT
B4: UUCCCGU (DNA:RNA)
RNA: B1 RNA with G25U, U27C, U28C, G29C, A30G, G31U
DNA 1: CAATCTGAATTCCGGTCTCCC
DNA 2: TGGTGGCTACGACGGGATT
B5: UCGUUCG (DNA:RNA)
RNA: B1 RNA with G25U, U26C, U27G, G29U, A30C
DNA 1: CAATCTGAATTCCGGTCTCCC
DNA 2: TGGTGGCTACGACGGGATT
B6: CCUGCAG (DNA:RNA)
RNA: B1 RNA with G25C, U26C, U28G, G29C
DNA 1: CAATCTGAATTCCGGTCTCCC
DNA 2: TGGTGGCTACGACGGGATT
B7: GCUAUUA (DNA:RNA)
RNA: B1 RNA with U26C, U28A, G29U, A30U, G31A
DNA 1: CAATCTGAATTCCGGTCTCCC
DNA 2: TGGTGGCTACGACGGGATT
B8: CAAAGGG (DNA:RNA)
RNA: B1 RNA with G25C, U26A, U27A, U28A, A30G
DNA 1: CAATCTGAATTCCGGTCTCCC
DNA 2: TGGTGGCTACGACGGGATT
B9: AUGUCGG (DNA:RNA)
RNA: B1 RNA with G25A, U27G, G29C, A30G
DNA 1: CAATCTGAATTCCGGTCTCCC
DNA 2: TGGTGGCTACGACGGGATT
B10: UCAUUGC (DNA:RNA)
RNA: B1 RNA with G25U, U26C, U27A, G29U, A30G, G31C
DNA 1: CAATCTGAATTCCGGTCTCCC
DNA 2: TGGTGGCTACGACGGGATT
B11: UAACUGA (DNA:RNA)
RNA: GGGAGACCGGAAUUCAGAUUGUCCUAACUGAUUAAAUCCCGUCGUAGCCACCA
DNA 1: CAATCTGAATTCCGGTCTCCC
DNA 2: TGGTGGCTACGACGGGATT
B12: CCCGAUG (DNA:RNA)
RNA: B1 RNA with G25C, U26C, U27C, U28G, G29A, A30U
DNA 1: CAATCTGAATTCCGGTCTCCC
DNA 2: TGGTGGCTACGACGGGATT
B13: AAACACU (DNA:RNA)
RNA: B11 RNA with U25A, U29A, G30C, A31U
DNA 1: CAATCTGAATTCCGGTCTCCC
DNA 2: TGGTGGCTACGACGGGATT
B14: UGUAGGC (DNA:RNA)
RNA: B1 RNA with G25U, U26G, U28A, A30G, G31C
DNA 1: CAATCTGAATTCCGGTCTCCC
DNA 2: TGGTGGCTACGACGGGATT
B15: UUGCAAC (DNA:RNA)
RNA: B1 RNA with G25U, U27G, U28C, G29A, G31C
DNA 1: CAATCTGAATTCCGGTCTCCC
DNA 2: TGGTGGCTACGACGGGATT
B16: UCAGCAC (DNA:RNA)
RNA: B11 RNA with A26C, C28G, U29C, G30A, A31C
DNA 1: CAATCTGAATTCCGGTCTCCC
DNA 2: TGGTGGCTACGACGGGATT
B17: AUUUUAU (DNA:RNA)
RNA: B1 RNA with G25A, G29U, G31U
DNA 1: CAATCTGAATTCCGGTCTCCC
DNA 2: TGGTGGCTACGACGGGATT
B18: CUCCACU (DNA:RNA)
RNA: B1 RNA with G25C, U27C, U28C, G29A, A30C, G31U
DNA 1: CAATCTGAATTCCGGTCTCCC
DNA 2: TGGTGGCTACGACGGGATT
B19: ACAUCAU (DNA:RNA)
RNA: B1 RNA with G25A, U26C, U27A, G29C, G31U
DNA 1: CAATCTGAATTCCGGTCTCCC
DNA 2: TGGTGGCTACGACGGGATT
B20: AUCAUAU (DNA:RNA)
RNA: B1 RNA with G25A, U27C, U28A, G29U, G31U
DNA 1: CAATCTGAATTCCGGTCTCCC
DNA 2: TGGTGGCTACGACGGGATT
B21: CGUAUUC (DNA:RNA)
RNA: B1 RNA with G25C, U26G, U28A, G29U, A30U, G31C
DNA 1: CAATCTGAATTCCGGTCTCCC
DNA 2: TGGTGGCTACGACGGGATT
B22: GGUACGU (DNA:RNA)
RNA: B1 RNA with U26G, U28A, G29C, A30G, G31U
DNA 1: CAATCTGAATTCCGGTCTCCC
DNA 2: TGGTGGCTACGACGGGATT
B23: GUGAAUU (DNA:RNA)
RNA: B1 RNA with U27G, U28A, G29A, A30U, G31U
DNA 1: CAATCTGAATTCCGGTCTCCC
DNA 2: TGGTGGCTACGACGGGATT
B24: GCCAUGU (DNA:RNA)
RNA: B11 RNA with U25G, A26C, A27C, C28A, A31U
DNA 1: CAATCTGAATTCCGGTCTCCC
DNA 2: TGGTGGCTACGACGGGATT
B25: GGGCAUG (DNA:RNA)
RNA: B1 RNA with U26G, U27G, U28C, G29A, A30U
DNA 1: CAATCTGAATTCCGGTCTCCC
DNA 2: TGGTGGCTACGACGGGATT
B26: GUACGGU (DNA:RNA)
RNA: B1 RNA with U27A, U28C, A30G, G31U
DNA 1: CAATCTGAATTCCGGTCTCCC
DNA 2: TGGTGGCTACGACGGGATT
B27: GUAGCCU (DNA:RNA)
RNA: B1 RNA with U27A, U28G, G29C, A30C, G31U
DNA 1: CAATCTGAATTCCGGTCTCCC
DNA 2: TGGTGGCTACGACGGGATT
B28: UGAGGUC (DNA:RNA)
RNA: B11 RNA with A26G, C28G, U29G, G30U, A31C
DNA 1: CAATCTGAATTCCGGTCTCCC
DNA 2: TGGTGGCTACGACGGGATT
B29: GCCCGGA (DNA:RNA)
RNA: B11 RNA with U25G, A26C, A27C, U29G
DNA 1: CAATCTGAATTCCGGTCTCCC
DNA 2: TGGTGGCTACGACGGGATT
B30: GGCUGUA (DNA:RNA)
RNA: B1 RNA with U26G, U27C, A30U, G31A
DNA 1: CAATCTGAATTCCGGTCTCCC
DNA 2: TGGTGGCTACGACGGGATT
B31: ACCAUAU (DNA:RNA)
RNA: B1 RNA with G25A, U26C, U27C, U28A, G29U, G31U
DNA 1: CAATCTGAATTCCGGTCTCCC
DNA 2: TGGTGGCTACGACGGGATT

target: T1, RBFOX1 RRM (Homo sapiens, UniProt Q9NWB1 109-208); assay: EMSA; HiTS-Eq, 1 nM pool, 10 min; buffer printed only for the single-RNA assays: 10 mM Tris pH 7.5, 150 mM NaCl, 3.4 mM EDTA, 0.001% NP-40, 30 C; settings: tags: His6 N-terminal (pET28a); label: 5' 32P
T1 sequence: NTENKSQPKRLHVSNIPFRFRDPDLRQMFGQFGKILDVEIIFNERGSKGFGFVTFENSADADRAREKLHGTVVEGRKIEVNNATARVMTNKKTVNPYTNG
Summary of the method: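 Purified RbFox RRM, wild type or mutant, was incubated for 10 min in 50 µL with 1 nM of a 5′-radiolabelled RNA pool carrying 7 randomized nucleotides, whose flanks were annealed to DNA oligonucleotides, over a series of increasing protein concentrations. Unbound RNA was resolved on 8% native PAGE, cut out, reverse-transcribed, barcoded by PCR and sequenced on an Illumina HiSeq 2500. Relative association constants were derived from changes in read counts for each RNA species versus the control reaction and normalised to the cognate motif.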

Row | Binder | binding signal
1 | B1 | 0.0281 KA relative to UGCAUGU
2 | B2 | 0.0046 KA relative to UGCAUGU
3 | B3 | 0.0115 KA relative to UGCAUGU
4 | B4 | 0.00458 KA relative to UGCAUGU
5 | B5 | 0.0211 KA relative to UGCAUGU
6 | B6 | 0.014 KA relative to UGCAUGU
7 | B7 | 0.00365 KA relative to UGCAUGU
8 | B8 | 0.00628 KA relative to UGCAUGU
9 | B9 | 0.0196 KA relative to UGCAUGU
10 | B10 | 0.0115 KA relative to UGCAUGU
11 | B11 | 0.0111 KA relative to UGCAUGU
12 | B12 | 0.00929 KA relative to UGCAUGU
13 | B13 | 0.00096 KA relative to UGCAUGU
14 | B14 | 0.014 KA relative to UGCAUGU
15 | B15 | 0.0154 KA relative to UGCAUGU
16 | B16 | 0.00795 KA relative to UGCAUGU

Row | Binder | binding signal
17 | B17 | 0.00281 KA relative to UGCAUGU
18 | B18 | 0.00344 KA relative to UGCAUGU
19 | B19 | 0.000193 KA relative to UGCAUGU
20 | B20 | 0.00066 KA relative to UGCAUGU
21 | B21 | 0.0066 KA relative to UGCAUGU
22 | B22 | 0.0141 KA relative to UGCAUGU
23 | B23 | 0.0128 KA relative to UGCAUGU
24 | B24 | 0.0117 KA relative to UGCAUGU
25 | B25 | 0.519 KA relative to UGCAUGU
26 | B26 | 0.00854 KA relative to UGCAUGU
27 | B27 | 0.00648 KA relative to UGCAUGU
28 | B28 | 0.0144 KA relative to UGCAUGU
29 | B29 | 0.0142 KA relative to UGCAUGU
30 | B30 | 0.0154 KA relative to UGCAUGU
31 | B31 | 0.00164 KA relative to UGCAUGU

— article PMC9911399, “Two distinct binding modes provide the RNA-binding protein RbFox with extraordinary sequence specificity”
